Test results reported in the supplement of paper PMC9151546.
Most values come without repeats; read them as rough.

What was measured:
CHO-K1 [1] = experiment: hypodiploid nuclei frequency (% of nucleated events); higher = more hypodiploid events (aneugenic)
Method: (§1)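 Flow-cytometric in vitro micronucleus assay (Litron MicroFlow) in CHO-K1 cells in 96-well plates, 19 concentrations (4.5-200 µM, n=1 per concentration). Without S9, cells were exposed for 24 h and sampled at 48 h. With Aroclor 1254-induced rat liver S9, cells were exposed for 3-4 h and sampled at 27-28 h. Read-outs are %MN and %hypodiploid nuclei relative to nucleated events, and relative survival as the nuclei-to-bead ratio versus the 1% DMSO vehicle control (x100).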

CHO-K1 [2] = experiment: relative survival (nuclei to bead ratio vs DMSO control) (% of vehicle control); higher = more surviving cells
Method: as §1

CHO-K1 [3] = experiment: micronucleus frequency (% of nucleated events); higher = more micronuclei (genotoxic)
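For hypodiploid nuclei frequency (% of nucleated events) in this document: hypodiploid nuclei gated on a flow cytometer with 488 nm excitation after SYTOX Green staining, cultures at 37 °C, positive controls vinblastine without S9 and cyclophosphamide with S9.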
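For micronucleus frequency (% of nucleated events) in this document: cells lysed with nuclei stained by SYTOX Green, then micronucleus-gated events counted against nucleated events by flow cytometry with 488 nm excitation.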
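For relative survival (nuclei to bead ratio vs DMSO control) in this document: Lysed-cell nuclei stained with SYTOX Green and counted against counting beads by flow cytometry at 488 nm excitation, with vinblastine (no S9) and cyclophosphamide (plus S9) as positive controls.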

OC1CCCCC1 [Cyclohexanol]
Details | hypodiploid nuclei frequency, CHO-K1 [1] [%] | micronucleus frequency, CHO-K1 [3] [%] | relative survival, CHO-K1 [2]
concentration: 4.55 (µM), S9 metabolic activation: with S9, exposure time: 3-4 hours | 0.2 | 1.26 | 110
concentration: 4.55 (µM), S9 metabolic activation: without S9, exposure time: 24 hours | 0.38 | 1.5 | 104
concentration: 5.69 (µM), S9 metabolic activation: with S9, exposure time: 3-4 hours | 0.24 | 1.26 | 108
concentration: 5.69 (µM), S9 metabolic activation: without S9, exposure time: 24 hours | 0.4 | 1.82 | 108
concentration: 7.11 (µM), S9 metabolic activation: with S9, exposure time: 3-4 hours | 0.2 | 1.1 | 112
concentration: 7.11 (µM), S9 metabolic activation: without S9, exposure time: 24 hours | 0.46 | 1.98 | 104
concentration: 8.88 (µM), S9 metabolic activation: with S9, exposure time: 3-4 hours | 0.38 | 1.2 | 106
concentration: 8.88 (µM), S9 metabolic activation: without S9, exposure time: 24 hours | 0.46 | 1.72 | 119
concentration: 11.1 (µM), S9 metabolic activation: with S9, exposure time: 3-4 hours | 0.2 | 1.42 | 115
concentration: 11.1 (µM), S9 metabolic activation: without S9, exposure time: 24 hours | 0.68 | 1.3 | 106
concentration: 13.9 (µM), S9 metabolic activation: with S9, exposure time: 3-4 hours | 0.28 | 1.24 | 100
concentration: 13.9 (µM), S9 metabolic activation: without S9, exposure time: 24 hours | 0.52 | 1.7 | 114
concentration: 17.4 (µM), S9 metabolic activation: with S9, exposure time: 3-4 hours | 0.12 | 1.06 | 130
concentration: 17.4 (µM), S9 metabolic activation: without S9, exposure time: 24 hours | 0.36 | 2.06 | 91
concentration: 21.7 (µM), S9 metabolic activation: with S9, exposure time: 3-4 hours | 0.18 | 1.58 | 139
concentration: 21.7 (µM), S9 metabolic activation: without S9, exposure time: 24 hours | 0.66 | 2.3 | 101
concentration: 27.1 (µM), S9 metabolic activation: with S9, exposure time: 3-4 hours | 0.18 | 1.32 | 103
concentration: 27.1 (µM), S9 metabolic activation: without S9, exposure time: 24 hours | 0.32 | 1.58 | 98
concentration: 33.9 (µM), S9 metabolic activation: with S9, exposure time: 3-4 hours | 0.38 | 1.02 | 110
concentration: 33.9 (µM), S9 metabolic activation: without S9, exposure time: 24 hours | 0.48 | 1.44 | 92.8
concentration: 42.4 (µM), S9 metabolic activation: with S9, exposure time: 3-4 hours | 0.18 | 1.42 | 127
concentration: 42.4 (µM), S9 metabolic activation: without S9, exposure time: 24 hours | 0.54 | 1.32 | 103
concentration: 53 (µM), S9 metabolic activation: with S9, exposure time: 3-4 hours | 0.2 | 1.28 | 104
concentration: 53 (µM), S9 metabolic activation: without S9, exposure time: 24 hours | 0.36 | 2.1 | 146
concentration: 66.2 (µM), S9 metabolic activation: with S9, exposure time: 3-4 hours | 0.28 | 1.24 | 104
concentration: 66.2 (µM), S9 metabolic activation: without S9, exposure time: 24 hours | 0.72 | 2.46 | 128
concentration: 82.7 (µM), S9 metabolic activation: with S9, exposure time: 3-4 hours | 0.4 | 1.82 | 96.3
concentration: 82.7 (µM), S9 metabolic activation: without S9, exposure time: 24 hours | 0.86 | 2.14 | 108
concentration: 103 (µM), S9 metabolic activation: with S9, exposure time: 3-4 hours | 0.28 | 1.18 | 100
concentration: 103 (µM), S9 metabolic activation: without S9, exposure time: 24 hours | 0.6 | 2.56 | 130
concentration: 129 (µM), S9 metabolic activation: with S9, exposure time: 3-4 hours | 0.24 | 1.28 | 79.7
concentration: 129 (µM), S9 metabolic activation: without S9, exposure time: 24 hours | 0.74 | 1.46 | 103
concentration: 162 (µM), S9 metabolic activation: with S9, exposure time: 3-4 hours | 0.12 | 1.6 | 89.9
concentration: 162 (µM), S9 metabolic activation: without S9, exposure time: 24 hours | 0.72 | 2.26 | 108
concentration: 202 (µM), S9 metabolic activation: with S9, exposure time: 3-4 hours | 0.2 | 1.18 | 104
concentration: 202 (µM), S9 metabolic activation: without S9, exposure time: 24 hours | 0.92 | 2.6 | 84

NC1CCCCC1 [Cyclohexylamine]
Details | hypodiploid nuclei frequency, CHO-K1 [1] [%] | micronucleus frequency, CHO-K1 [3] [%] | relative survival, CHO-K1 [2]
concentration: 4.55 (µM), S9 metabolic activation: with S9, exposure time: 3-4 hours | 0.08 | 1.12 | 143
concentration: 4.55 (µM), S9 metabolic activation: without S9, exposure time: 24 hours | 0.7 | 1.84 | 148
concentration: 5.69 (µM), S9 metabolic activation: with S9, exposure time: 3-4 hours | 0.4 | 1.82 | 139
concentration: 5.69 (µM), S9 metabolic activation: without S9, exposure time: 24 hours | 0.38 | 1.18 | 132
concentration: 7.11 (µM), S9 metabolic activation: with S9, exposure time: 3-4 hours | 0.2 | 1.7 | 129
concentration: 7.11 (µM), S9 metabolic activation: without S9, exposure time: 24 hours | 0.3 | 1.72 | 132
concentration: 8.88 (µM), S9 metabolic activation: with S9, exposure time: 3-4 hours | 0.38 | 1.84 | 116
concentration: 8.88 (µM), S9 metabolic activation: without S9, exposure time: 24 hours | 0.68 | 2.54 | 131
concentration: 11.1 (µM), S9 metabolic activation: with S9, exposure time: 3-4 hours | 0.3 | 1.34 | 123
concentration: 11.1 (µM), S9 metabolic activation: without S9, exposure time: 24 hours | 0.62 | 1.82 | 132
concentration: 13.9 (µM), S9 metabolic activation: with S9, exposure time: 3-4 hours | 0.3 | 2.1 | 140
concentration: 13.9 (µM), S9 metabolic activation: without S9, exposure time: 24 hours | 0.48 | 1.3 | 126
concentration: 17.4 (µM), S9 metabolic activation: with S9, exposure time: 3-4 hours | 0.1 | 1.24 | 108
concentration: 17.4 (µM), S9 metabolic activation: without S9, exposure time: 24 hours | 0.44 | 1.92 | 132
concentration: 21.7 (µM), S9 metabolic activation: with S9, exposure time: 3-4 hours | 0.22 | 1.64 | 117
concentration: 21.7 (µM), S9 metabolic activation: without S9, exposure time: 24 hours | 0.36 | 1.62 | 114
concentration: 27.1 (µM), S9 metabolic activation: with S9, exposure time: 3-4 hours | 0.26 | 1.22 | 176
concentration: 27.1 (µM), S9 metabolic activation: without S9, exposure time: 24 hours | 0.76 | 1.86 | 122
concentration: 33.9 (µM), S9 metabolic activation: with S9, exposure time: 3-4 hours | 0.18 | 1.72 | 134
concentration: 33.9 (µM), S9 metabolic activation: without S9, exposure time: 24 hours | 0.66 | 1.54 | 135
concentration: 42.4 (µM), S9 metabolic activation: with S9, exposure time: 3-4 hours | 0.24 | 1.34 | 135
concentration: 42.4 (µM), S9 metabolic activation: without S9, exposure time: 24 hours | 0.84 | 2.1 | 125
concentration: 53 (µM), S9 metabolic activation: with S9, exposure time: 3-4 hours | 0.34 | 1.48 | 143
concentration: 53 (µM), S9 metabolic activation: without S9, exposure time: 24 hours | 0.96 | 1.6 | 111
concentration: 66.2 (µM), S9 metabolic activation: with S9, exposure time: 3-4 hours | 0.24 | 0.98 | 121
concentration: 66.2 (µM), S9 metabolic activation: without S9, exposure time: 24 hours | 1.02 | 2.44 | 106
concentration: 82.7 (µM), S9 metabolic activation: with S9, exposure time: 3-4 hours | 0.22 | 1.24 | 111
concentration: 82.7 (µM), S9 metabolic activation: without S9, exposure time: 24 hours | 0.74 | 2.5 | 95.6
concentration: 103 (µM), S9 metabolic activation: with S9, exposure time: 3-4 hours | 0.2 | 1.6 | 99.8
concentration: 103 (µM), S9 metabolic activation: without S9, exposure time: 24 hours | 1.12 | 2.2 | 108
concentration: 129 (µM), S9 metabolic activation: with S9, exposure time: 3-4 hours | 0.28 | 1.66 | 130
concentration: 129 (µM), S9 metabolic activation: without S9, exposure time: 24 hours | 1.22 | 2.96 | 118
concentration: 162 (µM), S9 metabolic activation: with S9, exposure time: 3-4 hours | 0.34 | 2.34 | 99.8
concentration: 162 (µM), S9 metabolic activation: without S9, exposure time: 24 hours | 1.26 | 2.98 | 120
concentration: 202 (µM), S9 metabolic activation: with S9, exposure time: 3-4 hours | 0.2 | 2.04 | 119
concentration: 202 (µM), S9 metabolic activation: without S9, exposure time: 24 hours | 1.62 | 2.68 | 100
